Measured values from paper PMC6212432.
These are yes or no findings as the source states them, for the method shown. Binding seen in cells or lysates may run through a third protein. Some entries that bind do so weakly or less than the wild type. For part of these data: Sequences can lack the tags named with a protein. Values belong to the molecule of their own block, whether it stands above or below them.

Chains of the proteins cited; added tags and fusions are not shown.
UniProt P46937: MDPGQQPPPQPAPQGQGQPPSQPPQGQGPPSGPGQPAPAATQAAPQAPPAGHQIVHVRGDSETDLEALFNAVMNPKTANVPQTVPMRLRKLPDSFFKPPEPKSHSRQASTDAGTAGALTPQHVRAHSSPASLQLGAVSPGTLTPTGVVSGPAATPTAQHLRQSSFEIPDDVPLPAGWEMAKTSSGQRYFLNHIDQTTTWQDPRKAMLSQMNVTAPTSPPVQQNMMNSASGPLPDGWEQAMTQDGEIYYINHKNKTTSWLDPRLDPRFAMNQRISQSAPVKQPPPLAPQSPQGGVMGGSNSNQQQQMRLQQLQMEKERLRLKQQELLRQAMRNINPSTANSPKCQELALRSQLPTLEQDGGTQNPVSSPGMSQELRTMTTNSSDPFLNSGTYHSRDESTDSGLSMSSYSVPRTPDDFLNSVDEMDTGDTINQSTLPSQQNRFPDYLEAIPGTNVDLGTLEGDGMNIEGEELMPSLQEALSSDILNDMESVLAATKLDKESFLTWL
UniProt Q9Y297: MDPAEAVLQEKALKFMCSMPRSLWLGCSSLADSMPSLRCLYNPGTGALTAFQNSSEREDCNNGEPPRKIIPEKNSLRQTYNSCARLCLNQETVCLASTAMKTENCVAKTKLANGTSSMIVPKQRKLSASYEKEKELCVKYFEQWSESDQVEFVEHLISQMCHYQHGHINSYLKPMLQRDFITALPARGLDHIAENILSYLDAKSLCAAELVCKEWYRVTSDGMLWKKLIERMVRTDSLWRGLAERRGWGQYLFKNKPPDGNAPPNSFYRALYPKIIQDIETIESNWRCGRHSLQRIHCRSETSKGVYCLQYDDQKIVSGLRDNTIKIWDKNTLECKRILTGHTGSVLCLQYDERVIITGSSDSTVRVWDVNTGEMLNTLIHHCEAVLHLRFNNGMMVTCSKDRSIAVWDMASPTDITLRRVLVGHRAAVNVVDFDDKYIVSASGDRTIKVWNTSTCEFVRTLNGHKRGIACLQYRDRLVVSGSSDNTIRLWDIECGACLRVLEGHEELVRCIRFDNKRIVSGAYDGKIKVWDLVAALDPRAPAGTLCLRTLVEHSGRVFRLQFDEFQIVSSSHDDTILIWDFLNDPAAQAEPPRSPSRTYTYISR
UniProt Q9Y6K9: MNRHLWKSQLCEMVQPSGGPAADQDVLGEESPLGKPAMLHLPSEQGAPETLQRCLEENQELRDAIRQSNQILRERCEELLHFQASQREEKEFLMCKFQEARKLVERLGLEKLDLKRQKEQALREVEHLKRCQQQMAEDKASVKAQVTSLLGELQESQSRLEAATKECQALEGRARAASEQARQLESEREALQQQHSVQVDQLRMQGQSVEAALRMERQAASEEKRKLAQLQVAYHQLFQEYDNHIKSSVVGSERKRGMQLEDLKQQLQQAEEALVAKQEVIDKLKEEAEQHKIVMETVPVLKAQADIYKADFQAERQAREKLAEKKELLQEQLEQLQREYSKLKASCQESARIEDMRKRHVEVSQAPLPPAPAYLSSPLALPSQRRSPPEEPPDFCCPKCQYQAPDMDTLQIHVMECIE

Key:
[1] = target: YAP (overexpressed, tag not stated for these co-IPs) (UniProt P46937); test: co-IP; tagged proteins overexpressed in HEK293T for 24 h; lysate with anti-Flag M2 magnetic beads or anti-Myc agarose, 4 °C, 8 h; five washes; immunoblot
[2] = target: T1, Flag-tagged TAK1 (UniProt O43318); test: as above
T1 sequence: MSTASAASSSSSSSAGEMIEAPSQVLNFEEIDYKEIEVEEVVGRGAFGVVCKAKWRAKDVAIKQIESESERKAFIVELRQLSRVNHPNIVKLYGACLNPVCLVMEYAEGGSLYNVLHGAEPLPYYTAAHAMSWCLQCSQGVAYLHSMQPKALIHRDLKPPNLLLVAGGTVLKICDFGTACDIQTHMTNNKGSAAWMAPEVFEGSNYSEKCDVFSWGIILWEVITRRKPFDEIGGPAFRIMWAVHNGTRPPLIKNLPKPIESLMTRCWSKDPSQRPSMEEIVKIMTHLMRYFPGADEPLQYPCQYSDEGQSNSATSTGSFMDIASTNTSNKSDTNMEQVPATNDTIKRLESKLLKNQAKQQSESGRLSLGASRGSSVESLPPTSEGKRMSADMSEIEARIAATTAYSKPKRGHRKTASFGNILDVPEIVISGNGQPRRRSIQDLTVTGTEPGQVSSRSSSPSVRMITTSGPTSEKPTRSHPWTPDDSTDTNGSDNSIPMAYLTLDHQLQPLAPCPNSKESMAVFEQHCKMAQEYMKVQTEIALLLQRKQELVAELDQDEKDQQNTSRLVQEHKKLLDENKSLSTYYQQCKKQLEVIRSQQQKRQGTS

[3] = target: YAP (overexpressed, tag not stated for these co-IPs) (UniProt P46937); test: co-IP; YAP and β-TRCP in HEK293T cells with overexpression of TAK1 or kinase-dead TAK1 (TAK1-KD)
[4] = target: YAP (in HEK293A cells) (UniProt P46937); test: co-IP; YAP and β-TRCP in TAK1-KO HEK293A cells
[5] = target: YAP (in HEK293A cells) (UniProt P46937); test: co-IP; YAP and β-TRCP in wild-type HEK293A cells
[6] = target: YAP (endogenous) (human (endogenous in HEK293T)) (UniProt P46937); test: co-IP; immunoprecipitation with anti-YAP antibody of endogenous proteins from HEK293T cells
[7] = target: Flag-tagged YAP (UniProt P46937); test: co-IP; tagged proteins overexpressed in HEK293T for 24 h; lysate with anti-Flag M2 magnetic beads or anti-Myc agarose, 4 °C, 8 h; five washes; immunoblot
[8] = target: T2, IKKα (inhibitor of nuclear factor kappa-B kinase subunit alpha), O15111; test: co-IP; IKKα and TAK1 in HEK293T cells with or without overexpression of YAP; details: remark: other sources report otherwise
T2 chain: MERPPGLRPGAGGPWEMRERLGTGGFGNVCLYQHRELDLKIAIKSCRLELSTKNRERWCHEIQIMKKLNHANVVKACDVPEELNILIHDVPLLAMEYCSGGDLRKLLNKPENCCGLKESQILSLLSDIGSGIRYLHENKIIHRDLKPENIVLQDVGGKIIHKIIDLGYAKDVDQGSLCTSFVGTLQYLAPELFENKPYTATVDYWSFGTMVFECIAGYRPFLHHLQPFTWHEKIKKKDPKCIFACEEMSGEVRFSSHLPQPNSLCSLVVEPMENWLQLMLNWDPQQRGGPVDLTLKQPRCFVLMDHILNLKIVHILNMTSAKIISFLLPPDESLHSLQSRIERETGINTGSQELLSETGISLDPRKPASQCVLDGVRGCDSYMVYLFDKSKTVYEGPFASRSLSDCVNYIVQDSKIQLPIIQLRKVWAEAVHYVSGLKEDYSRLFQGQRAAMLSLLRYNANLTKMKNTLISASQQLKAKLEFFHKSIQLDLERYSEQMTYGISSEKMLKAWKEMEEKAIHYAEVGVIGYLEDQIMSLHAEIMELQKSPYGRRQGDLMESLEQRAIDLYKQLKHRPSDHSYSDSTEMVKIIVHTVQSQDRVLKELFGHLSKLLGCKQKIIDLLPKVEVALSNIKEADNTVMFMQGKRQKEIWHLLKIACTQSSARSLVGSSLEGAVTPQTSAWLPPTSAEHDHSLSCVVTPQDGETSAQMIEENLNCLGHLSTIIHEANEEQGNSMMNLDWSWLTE

Molecule: β-TRCP (in HEK293A cells) (from UniProt Q9Y297 1-605)
- binding [4]: no binding (condition: in TAK1-KO HEK293A cells)
- binding [5]: binds

B1: IKKβ (inhibitor of nuclear factor kappa-B kinase subunit beta) (enzyme, UniProt O14920 1-756)
chain: MSWSPSLTTQTCGAWEMKERLGTGGFGNVIRWHNQETGEQIAIKQCRQELSPRNRERWCLEIQIMRRLTHPNVVAARDVPEGMQNLAPNDLPLLAMEYCQGGDLRKYLNQFENCCGLREGAILTLLSDIASALRYLHENRIIHRDLKPENIVLQQGEQRLIHKIIDLGYAKELDQGSLCTSFVGTLQYLAPELLEQQKYTVTVDYWSFGTLAFECITGFRPFLPNWQPVQWHSKVRQKSEVDIVVSEDLNGTVKFSSSLPYPNNLNSVLAERLEKWLQLMLMWHPRQRGTDPTYGPNGCFKALDDILNLKLVHILNMVTGTIHTYPVTEDESLQSLKARIQQDTGIPEEDQELLQEAGLALIPDKPATQCISDGKLNEGHTLDMDLVFLFDNSKITYETQISPRPQPESVSCILQEPKRNLAFFQLRKVWGQVWHSIQTLKEDCNRLQQGQRAAMMNLLRNNSCLSKMKNSMASMSQQLKAKLDFFKTSIQIDLEKYSEQTEFGITSDKLLLAWREMEQAVELCGRENEVKLLVERMMALQTDIVDLQRSPMGRKQGGTLDDLEEQARELYRRLREKPRDQRTEGDSQEMVRLLLQAIQSFEKKVRVIYTQLSKTVVCKQKALELLPKVEEVVSLMNEDEKTVVRLQEKRQKELWNLLKIACSKVRGPVSGSPDSMNASRLSQPGQLMSQPSTASNSLPEPAKKSEELVAEAHNLCTLLENAIQDTVREQDQSFTALDWSWLQTEEEEHSCLEQAS
- binding [1]: binds

B2: TAK1 (endogenous) (enzyme, UniProt O43318 1-606)
chain: T1 sequence
- binding [6]: binds

B3: TAK1 (overexpressed, tag not stated for these co-IPs) (enzyme, UniProt O43318 1-606)
chain: T1 sequence
- binding [7]: binds

Other lines, results leading:

- binding [1]: binds
Molecule: IKKγ (from UniProt Q9Y6K9 1-419)

- binding [2]: binds
Molecule: YAP (overexpressed, tag not stated for these co-IPs) (from UniProt P46937 1-504)

- binding [3]: binds
Molecule: β-TRCP (from UniProt Q9Y297 1-605)

- binding [8]: binds
B4: TAK1 (overexpressed, tag not stated for these co-IPs), O43318 1-606 (enzyme)
chain: T1 sequence
